We go through 31 molecules from publication PMC9911399, “Two distinct binding modes provide the RNA-binding protein RbFox with extraordinary sequence specificity”.

Positions count from the first letter of the chain named. Some of the results follow.

The chains are these.
B1: AGCCUUA (DNA:RNA)
RNA: GGGAGACCGGAAUUCAGAUUGUCCAGCCUUAUUAAAUCCCGUCGUAGCCACCA
DNA 1: CAATCTGAATTCCGGTCTCCC
DNA 2: TGGTGGCTACGACGGGATT
B2: ACGCGUC (DNA:RNA)
RNA: B1 RNA with G26C, C27G, U29G, A31C
DNA 1: CAATCTGAATTCCGGTCTCCC
DNA 2: TGGTGGCTACGACGGGATT
B3: ACCAUCC (DNA:RNA)
RNA: B1 RNA with G26C, C28A, U30C, A31C
DNA 1: CAATCTGAATTCCGGTCTCCC
DNA 2: TGGTGGCTACGACGGGATT
B4: CAUAAAC (DNA:RNA)
RNA: GGGAGACCGGAAUUCAGAUUGUCCCAUAAACUUAAAUCCCGUCGUAGCCACCA
DNA 1: CAATCTGAATTCCGGTCTCCC
DNA 2: TGGTGGCTACGACGGGATT
B5: AGCACCU (DNA:RNA)
RNA: B1 RNA with C28A, U29C, U30C, A31U
DNA 1: CAATCTGAATTCCGGTCTCCC
DNA 2: TGGTGGCTACGACGGGATT
B6: CCCUCGU (DNA:RNA)
RNA: B1 RNA with A25C, G26C, C28U, U29C, U30G, A31U
DNA 1: CAATCTGAATTCCGGTCTCCC
DNA 2: TGGTGGCTACGACGGGATT
B7: AAUACUA (DNA:RNA)
RNA: B1 RNA with G26A, C27U, C28A, U29C
DNA 1: CAATCTGAATTCCGGTCTCCC
DNA 2: TGGTGGCTACGACGGGATT
B8: CACCGUC (DNA:RNA)
RNA: B1 RNA with A25C, G26A, U29G, A31C
DNA 1: CAATCTGAATTCCGGTCTCCC
DNA 2: TGGTGGCTACGACGGGATT
B9: AUCAGCA (DNA:RNA)
RNA: B1 RNA with G26U, C28A, U29G, U30C
DNA 1: CAATCTGAATTCCGGTCTCCC
DNA 2: TGGTGGCTACGACGGGATT
B10: AGAGUAC (DNA:RNA)
RNA: B1 RNA with C27A, C28G, U30A, A31C
DNA 1: CAATCTGAATTCCGGTCTCCC
DNA 2: TGGTGGCTACGACGGGATT
B11: CCAGCCU (DNA:RNA)
RNA: B4 RNA with A26C, U27A, A28G, A29C, A30C, C31U
DNA 1: CAATCTGAATTCCGGTCTCCC
DNA 2: TGGTGGCTACGACGGGATT
B12: UACUAGG (DNA:RNA)
RNA: B4 RNA with C25U, U27C, A28U, A30G, C31G
DNA 1: CAATCTGAATTCCGGTCTCCC
DNA 2: TGGTGGCTACGACGGGATT
B13: GUUUACG (DNA:RNA)
RNA: B4 RNA with C25G, A26U, A28U, A30C, C31G
DNA 1: CAATCTGAATTCCGGTCTCCC
DNA 2: TGGTGGCTACGACGGGATT
B14: UCAAUUG (DNA:RNA)
RNA: B1 RNA with A25U, G26C, C27A, C28A, A31G
DNA 1: CAATCTGAATTCCGGTCTCCC
DNA 2: TGGTGGCTACGACGGGATT
B15: ACCAAAG (DNA:RNA)
RNA: B4 RNA with C25A, A26C, U27C, C31G
DNA 1: CAATCTGAATTCCGGTCTCCC
DNA 2: TGGTGGCTACGACGGGATT
B16: CUGCCGC (DNA:RNA)
RNA: B4 RNA with A26U, U27G, A28C, A29C, A30G
DNA 1: CAATCTGAATTCCGGTCTCCC
DNA 2: TGGTGGCTACGACGGGATT
B17: GAUGCUG (DNA:RNA)
RNA: B4 RNA with C25G, A28G, A29C, A30U, C31G
DNA 1: CAATCTGAATTCCGGTCTCCC
DNA 2: TGGTGGCTACGACGGGATT
B18: UACUUAG (DNA:RNA)
RNA: B1 RNA with A25U, G26A, C28U, U30A, A31G
DNA 1: CAATCTGAATTCCGGTCTCCC
DNA 2: TGGTGGCTACGACGGGATT
B19: GUAUACC (DNA:RNA)
RNA: B4 RNA with C25G, A26U, U27A, A28U, A30C
DNA 1: CAATCTGAATTCCGGTCTCCC
DNA 2: TGGTGGCTACGACGGGATT
B20: UUGAUCA (DNA:RNA)
RNA: B1 RNA with A25U, G26U, C27G, C28A, U30C
DNA 1: CAATCTGAATTCCGGTCTCCC
DNA 2: TGGTGGCTACGACGGGATT
B21: CAGGUUA (DNA:RNA)
RNA: B1 RNA with A25C, G26A, C27G, C28G
DNA 1: CAATCTGAATTCCGGTCTCCC
DNA 2: TGGTGGCTACGACGGGATT
B22: UGUCAAA (DNA:RNA)
RNA: B1 RNA with A25U, C27U, U29A, U30A
DNA 1: CAATCTGAATTCCGGTCTCCC
DNA 2: TGGTGGCTACGACGGGATT
B23: GCUUGGC (DNA:RNA)
RNA: B4 RNA with C25G, A26C, A28U, A29G, A30G
DNA 1: CAATCTGAATTCCGGTCTCCC
DNA 2: TGGTGGCTACGACGGGATT
B24: GGUGGGU (DNA:RNA)
RNA: B1 RNA with A25G, C27U, C28G, U29G, U30G, A31U
DNA 1: CAATCTGAATTCCGGTCTCCC
DNA 2: TGGTGGCTACGACGGGATT
B25: UGUUAAU (DNA:RNA)
RNA: B4 RNA with C25U, A26G, A28U, C31U
DNA 1: CAATCTGAATTCCGGTCTCCC
DNA 2: TGGTGGCTACGACGGGATT
B26: CGUACUC (DNA:RNA)
RNA: B4 RNA with A26G, A29C, A30U
DNA 1: CAATCTGAATTCCGGTCTCCC
DNA 2: TGGTGGCTACGACGGGATT
B27: ACACCUA (DNA:RNA)
RNA: B1 RNA with G26C, C27A, U29C
DNA 1: CAATCTGAATTCCGGTCTCCC
DNA 2: TGGTGGCTACGACGGGATT
B28: CGAAGGG (DNA:RNA)
RNA: B4 RNA with A26G, U27A, A29G, A30G, C31G
DNA 1: CAATCTGAATTCCGGTCTCCC
DNA 2: TGGTGGCTACGACGGGATT
B29: CCCAUGA (DNA:RNA)
RNA: B1 RNA with A25C, G26C, C28A, U30G
DNA 1: CAATCTGAATTCCGGTCTCCC
DNA 2: TGGTGGCTACGACGGGATT
B30: CCCUUAC (DNA:RNA)
RNA: B4 RNA with A26C, U27C, A28U, A29U
DNA 1: CAATCTGAATTCCGGTCTCCC
DNA 2: TGGTGGCTACGACGGGATT
B31: AUUACAG (DNA:RNA)
RNA: B4 RNA with C25A, A26U, A29C, C31G
DNA 1: CAATCTGAATTCCGGTCTCCC
DNA 2: TGGTGGCTACGACGGGATT

The target of this assay is T1, RBFOX1 RRM (Homo sapiens, UniProt Q9NWB1 109-208).
T1 sequence: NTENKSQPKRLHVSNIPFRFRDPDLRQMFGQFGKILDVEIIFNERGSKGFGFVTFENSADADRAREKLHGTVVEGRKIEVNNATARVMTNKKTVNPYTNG
The assay is described as follows: EMSA; HiTS-Eq, 1 nM pool, 10 min; buffer printed only for the single-RNA assays: 10 mM Tris pH 7.5, 150 mM NaCl, 3.4 mM EDTA, 0.001% NP-40, 30 C. Conditions: tags: His6 N-terminal (pET28a); label: 5' 32P. Put shortly:
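Relative association constants, normalised to the cognate motif, were derived by comparing read counts of each RNA species with those of the control reaction. The RNA sequenced was the free fraction, separated by 8% native PAGE after a 10 min equilibration in 50 µL of 1 nM 5′-radiolabelled RNA (7 randomized nucleotides) with increasing concentrations of purified wild-type or mutant RbFox RRM.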
(Mobility shift assays separate free from complexed probe on a gel.)
On to B1, for which the binding signal was 0.00217 KA relative to UGCAUGU.
The value for B2 was 0.00696 KA relative to UGCAUGU.
With B3, the binding signal is 0.00195 KA relative to UGCAUGU.
B4: the binding signal is 0.000642 KA relative to UGCAUGU.
On to B5, for which the binding signal was 0.00418 KA relative to UGCAUGU.
The value for B6 was 0.00414 KA relative to UGCAUGU; that for B7 was 0.000387 KA relative to UGCAUGU; that for B8 was 0.00282 KA relative to UGCAUGU.
The value for B9 was 0.00582 KA relative to UGCAUGU; that for B10 was 0.0116 KA relative to UGCAUGU; that for B11 was 0.00672 KA relative to UGCAUGU.
Consider B12, for which the binding signal was 0.00489 KA relative to UGCAUGU.
In the case of B13, the binding signal was 0.0137 KA relative to UGCAUGU.
On to B14, for which the binding signal is 0.0116 KA relative to UGCAUGU.
The value for B15 was 0.00226 KA relative to UGCAUGU.
The value for B16 was 0.0168 KA relative to UGCAUGU; that for B17 was 0.0203 KA relative to UGCAUGU.
Regarding B18, the binding signal was 0.0146 KA relative to UGCAUGU.
B19: the binding signal was 0.0043 KA relative to UGCAUGU.
Take B20: the binding signal is 0.0152 KA relative to UGCAUGU.
Take B21: the binding signal is 0.00641 KA relative to UGCAUGU.
Then B22, with 0.00774 KA relative to UGCAUGU.
Then B23, with 0.0234 KA relative to UGCAUGU; and B24, with 0.0186 KA relative to UGCAUGU; and B25, with 0.0111 KA relative to UGCAUGU.
Then B26, with 0.00584 KA relative to UGCAUGU.
Regarding B27, the binding signal was 0.0018 KA relative to UGCAUGU.
Then B28, with 0.00457 KA relative to UGCAUGU.
Then B29, with 0.0135 KA relative to UGCAUGU; and B30, with 0.00236 KA relative to UGCAUGU; and B31, with 0.0056 KA relative to UGCAUGU.
